17 molecules from the supplement of paper PMC4604168 (melanoma cell lines) can be followed below.

Some of the results follow. Many values rest on one well or one pass, so single values are uncertain.
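Further: cells treated in 1,536-well plates, then fixed and DAPI-stained, with nuclei counted from automated high-throughput microscope images.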

For this test, the system named is WM3526. As to the kind of experiment: cell count relative to DMSO control; melanoma cells; higher = more viable cells. As to conditions: library dose: standard library concentration; 72 h.
The molecule `CCCS(=O)(=O)Nc1ccc(F)c(C(=O)c2c[nH]c3ncc(Cl)cc23)c1F` + COc1cc2c(Oc3ccc4[nH]c(C)cc4c3F)ncnc2cc1OCCCN1CCCC1 [cediranib] (first compound 0.4 µM, partner dose 2 µM) came in with a cell count of 61%.

`C=C(c1ccc(C(=O)O)cc1)c1cc2c(cc1C)C(C)(C)CCC2(C)C` [Bexarotene] + CCN(CC)CCCCNc1ncc2cc(-c3cc(OC)cc(OC)c3)c(NC(=O)NC(C)(C)C)nc2n1 [PD173074] (first compound 10 µM, partner dose 0.5 µM) yielded a cell count of 88.8%.

For `C=C(c1ccc(C(=O)O)cc1)c1cc2c(cc1C)C(C)(C)CCC2(C)C` [Bexarotene] + CC(C)CCN1c2nc(Nc3cc(F)c(O)c(F)c3)ncc2N(C)C(=O)C1C [BID1870] (first compound 10 µM, partner dose 1 µM), the cell count is 61.7%.

Take `CS(=O)(=O)c1ccc(C(=O)Nc2ccc(Cl)c(-c3ccccn3)c2)c(Cl)c1` [vismodegib] + O=C(Nc1ccccc1)c1cc([N+](=O)[O-])ccc1Cl [GW9662] (first compound 5 µM, partner dose 10 µM): the cell count amounted to 89.9%.

For the molecule `CS(=O)(=O)c1ccc(C(=O)Nc2ccc(Cl)c(-c3ccccn3)c2)c(Cl)c1` [vismodegib] + c1cc(-c2cnn3cc(-c4ccc(OCCN5CCCCC5)cc4)cnc23)ccn1 [Dorsomorphin] (first compound 5 µM, partner dose 2 µM), the cell count was found to be 81.4%.

`CN(c1ncccc1CNc1nc(Nc2ccc3c(c2)CC(=O)N3)ncc1C(F)(F)F)S(C)(=O)=O` + O=C1NC(=O)/C(=C/c2ccc(-c3ccc(F)cc3O)o2)S1 [AS252424] (first compound 0.4 µM, partner dose 5 µM) came in with a cell count of 97.8%.

Regarding `CS(=O)(=O)c1ccc(C(=O)Nc2ccc(Cl)c(-c3ccccn3)c2)c(Cl)c1` [vismodegib] + CCN(CC)CCCCNc1ncc2cc(-c3cc(OC)cc(OC)c3)c(NC(=O)NC(C)(C)C)nc2n1 [PD173074] (first compound 5 µM, partner dose 0.5 µM), the cell count turned out to be 87.6%.

`C=C(c1ccc(C(=O)O)cc1)c1cc2c(cc1C)C(C)(C)CCC2(C)C` [Bexarotene] + O=c1cc(-c2cccc3c2Sc2ccccc2S3)oc(N2CCOCC2)c1 [KU55933] (first compound 10 µM, partner dose 5 µM) came in with a cell count of 89.2%.

`NC1(c2ccc(-c3nc4ccn5c(=O)[nH]nc5c4cc3-c3ccccc3)cc2)CCC1` + O=c1cc(-c2cccc3c2Sc2ccccc2S3)oc(N2CCOCC2)c1 [KU55933] (first compound 2 µM, partner dose 5 µM): the cell count worked out at 58.5%.

On to `NC1(c2ccc(-c3nc4ccn5c(=O)[nH]nc5c4cc3-c3ccccc3)cc2)CCC1` + COc1cc2ncnc(Nc3ccc(Oc4ccccc4)cc3)c2cc1OC [SrcI1] (first compound 2 µM, partner dose 10 µM), for which the cell count was 47.8%.

The molecule `CCCS(=O)(=O)Nc1ccc(F)c(C(=O)c2c[nH]c3ncc(Cl)cc23)c1F` + COc1ccc(COc2ccc(Cc3cnc(N)nc3N)cc2OC)cc1 [GW2580] (first compound 0.4 µM, partner dose 5 µM) returned a cell count of 74.2%.

Regarding `CCCS(=O)(=O)Nc1ccc(F)c(C(=O)c2c[nH]c3ncc(Cl)cc23)c1F` + Oc1nc(-c2ccc(C(F)(F)F)cc2)nc2c1CSCC2 [XAV939] (first compound 0.4 µM, partner dose 10 µM), the cell count was 66.3%.

Take `CN(c1ncccc1CNc1nc(Nc2ccc3c(c2)CC(=O)N3)ncc1C(F)(F)F)S(C)(=O)=O` + COc1cc(N2CCC(N3CCN(C)CC3)CC2)ccc1Nc1ncc(Cl)c(Nc2ccccc2S(=O)(=O)C(C)C)n1 [NVP-TAE684] (first compound 0.4 µM, partner dose 0.4 µM): the cell count is 80.8%.

For the molecule `CCCS(=O)(=O)Nc1ccc(F)c(C(=O)c2c[nH]c3ncc(Cl)cc23)c1F` + c1cc(-c2cnn3cc(-c4ccc(OCCN5CCCCC5)cc4)cnc23)ccn1 [Dorsomorphin] (first compound 0.4 µM, partner dose 2 µM), the cell count amounted to 51.9%.

With `NC1(c2ccc(-c3nc4ccn5c(=O)[nH]nc5c4cc3-c3ccccc3)cc2)CCC1` + O=C1NC(=O)/C(=C/c2ccc(-c3ccc(F)cc3O)o2)S1 [AS252424] (first compound 2 µM, partner dose 5 µM), the cell count is 62.8%.

`CCCS(=O)(=O)Nc1ccc(F)c(C(=O)c2c[nH]c3ncc(Cl)cc23)c1F` + Cc1cc([N+](=O)[O-])ccc1NS(=O)(=O)c1cc(Cl)ccc1Cl [FH535] (first compound 0.4 µM, partner dose 5 µM) yielded a cell count of 65.8%.

For the molecule `CN(c1ncccc1CNc1nc(Nc2ccc3c(c2)CC(=O)N3)ncc1C(F)(F)F)S(C)(=O)=O` + CC(C)CCN1c2nc(Nc3cc(F)c(O)c(F)c3)ncc2N(C)C(=O)C1C [BID1870] (first compound 0.4 µM, partner dose 1 µM), the cell count is 77%.
